Assay results published in PubChem BioAssay AID504333 (National Center for Advancing Translational Sciences (NCATS), 2011).
Hit rate of the full screen: of about 360,000 compounds, about 16,000 (4.4%) were called active. The inconclusive results got no clear call from the source; some entries with a clear call stand among them for comparison. Calls follow the shape of the dose curve; as a rule, active = well fitted inhibition curve with a large enough effect; inconclusive = small, poorly fitted or top-dose-only effect; inactive = no such curve, though single readings can be large or run the other way. Where the call is inconclusive, the potency comes from a doubtful curve fit.

target: Bromodomain adjacent to zinc finger domain protein 2B (Homo sapiens) (UniProt Q9UIF8); experiment: qHTS Assay for Inhibitors of BAZ2B; details: AlphaScreen BAZ2B-H3K14Ac peptide displacement; activity change, negative = inhibition: at 114 µM (top of the series) unless noted; also: nearly all actives have a fitted effect of over 60% in size
Chain of UniProt Q9UIF8 (Q9UIF8 whole entry, looked up, the tested form may be a part): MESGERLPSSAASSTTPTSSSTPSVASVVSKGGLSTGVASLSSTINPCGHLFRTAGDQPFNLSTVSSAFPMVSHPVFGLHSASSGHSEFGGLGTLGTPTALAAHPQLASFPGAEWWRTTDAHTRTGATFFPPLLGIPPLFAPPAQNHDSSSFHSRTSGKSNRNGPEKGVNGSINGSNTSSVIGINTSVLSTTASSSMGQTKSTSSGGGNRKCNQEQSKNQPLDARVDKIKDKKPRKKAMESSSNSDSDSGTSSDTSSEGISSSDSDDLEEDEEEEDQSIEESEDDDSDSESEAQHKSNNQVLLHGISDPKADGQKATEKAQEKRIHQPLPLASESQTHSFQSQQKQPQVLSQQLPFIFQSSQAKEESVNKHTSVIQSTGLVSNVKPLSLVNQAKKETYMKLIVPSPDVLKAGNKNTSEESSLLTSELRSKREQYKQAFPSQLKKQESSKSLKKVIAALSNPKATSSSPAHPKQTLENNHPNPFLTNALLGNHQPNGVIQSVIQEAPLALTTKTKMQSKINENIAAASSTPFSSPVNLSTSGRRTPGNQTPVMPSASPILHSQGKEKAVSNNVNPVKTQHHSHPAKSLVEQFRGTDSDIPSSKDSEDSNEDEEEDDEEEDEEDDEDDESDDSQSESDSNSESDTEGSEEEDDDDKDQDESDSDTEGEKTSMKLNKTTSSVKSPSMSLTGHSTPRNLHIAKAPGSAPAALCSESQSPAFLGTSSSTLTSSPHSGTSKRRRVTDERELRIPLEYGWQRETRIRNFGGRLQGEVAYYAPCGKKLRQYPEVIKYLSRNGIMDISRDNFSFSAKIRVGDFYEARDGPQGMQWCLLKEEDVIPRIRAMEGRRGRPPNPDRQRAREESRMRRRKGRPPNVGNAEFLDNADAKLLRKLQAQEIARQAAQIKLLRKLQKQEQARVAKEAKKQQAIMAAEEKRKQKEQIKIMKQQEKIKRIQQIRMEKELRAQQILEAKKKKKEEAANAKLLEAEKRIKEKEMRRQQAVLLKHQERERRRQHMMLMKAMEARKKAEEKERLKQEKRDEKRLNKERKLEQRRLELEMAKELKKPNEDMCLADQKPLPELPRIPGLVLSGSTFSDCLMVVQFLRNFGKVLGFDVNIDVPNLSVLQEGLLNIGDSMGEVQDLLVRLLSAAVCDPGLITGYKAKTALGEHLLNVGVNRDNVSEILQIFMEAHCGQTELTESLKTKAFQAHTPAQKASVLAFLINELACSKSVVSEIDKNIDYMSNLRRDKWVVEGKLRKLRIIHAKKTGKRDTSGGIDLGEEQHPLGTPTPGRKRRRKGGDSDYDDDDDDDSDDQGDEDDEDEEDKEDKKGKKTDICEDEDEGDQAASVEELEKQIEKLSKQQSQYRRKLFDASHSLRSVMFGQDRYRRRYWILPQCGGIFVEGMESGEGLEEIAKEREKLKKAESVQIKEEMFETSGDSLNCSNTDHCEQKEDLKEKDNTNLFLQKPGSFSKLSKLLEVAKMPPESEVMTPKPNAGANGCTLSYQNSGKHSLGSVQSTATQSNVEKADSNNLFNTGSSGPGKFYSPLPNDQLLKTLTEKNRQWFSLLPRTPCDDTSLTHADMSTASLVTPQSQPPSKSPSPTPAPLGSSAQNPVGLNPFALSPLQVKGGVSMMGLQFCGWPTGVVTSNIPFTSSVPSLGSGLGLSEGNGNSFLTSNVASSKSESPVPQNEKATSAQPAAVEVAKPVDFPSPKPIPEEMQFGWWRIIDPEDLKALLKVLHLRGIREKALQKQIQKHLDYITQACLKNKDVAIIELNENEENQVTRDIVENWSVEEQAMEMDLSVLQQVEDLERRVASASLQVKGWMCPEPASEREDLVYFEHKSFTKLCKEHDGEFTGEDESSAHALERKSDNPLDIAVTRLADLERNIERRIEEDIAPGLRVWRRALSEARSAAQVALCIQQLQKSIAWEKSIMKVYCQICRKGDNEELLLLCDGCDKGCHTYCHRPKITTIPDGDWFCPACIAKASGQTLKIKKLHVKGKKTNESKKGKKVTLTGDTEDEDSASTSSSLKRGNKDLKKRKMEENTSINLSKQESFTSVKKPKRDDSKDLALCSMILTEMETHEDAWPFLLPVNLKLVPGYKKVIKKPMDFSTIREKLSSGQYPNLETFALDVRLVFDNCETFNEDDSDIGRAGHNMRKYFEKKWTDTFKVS
Summary of the method: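 Protein-peptide AlphaScreen: BAZ2B 50 nM, b-H3K14Ac 50 nM, 1x PBS pH 7.4 + 0.01% Tween-20. Preincubation 30 min RT; cpd 30 min RT (top 110 uM); beads 20 min RT, light-protected.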
% is scaled to controls: 0 for no effect and ±100 for the full control effect; potency is read from the fitted curve at half-maximal effect; tags tell the direction and shape of the fitted curve.

| SMILES | Potency | activity change, negative = inhibition |
| --- | --- | --- |
| COc1nc(NCCc2ccc(OC)c(OC)c2)nc(Nc2ccccc2)n1 | inconclusive: 56.2 µM [inhibitor, partial curve] |  |
| O=C(NCc1cccnc1)c1ccc(Cl)c(S(=O)(=O)Nc2ccccc2C(=O)NCc2cccnc2)c1 | inconclusive: 79.4 µM [inhibitor, single point] |  |
| Cc1ccc(-c2csc3nc[nH]c(=S)c23)cc1 | inconclusive: 89.1 µM [inhibitor, single point] |  |
| Cc1ccc(S(=O)(=O)NC2=C(N3CCN(c4ccccc4F)CC3)C(=O)c3ccccc3C2=O)cc1 | active: 10 µM |  |
| CCOc1ccc2nc(SC3CC(=O)N(c4ccccc4)C3=O)sc2c1 (configuration not stated) |  | inactive: 0.249% |
| COc1ccc(N2CCN(C(CNC(=O)OCc3ccccc3)c3ccco3)CC2)cc1 (configuration not stated) | active: 39.8 µM |  |
| COc1cccc(NC(=O)CCc2ccccc2)c1 |  | inactive: 41.7% |
| COc1ccc(/C=N/NC(=S)NCc2ccccc2)cc1OC | inconclusive: 89.1 µM [inhibitor, single point] |  |
| CC1CC(c2ccccc2)n2nc(NC(=O)CCc3ccccc3)nc2N1 (configuration not stated) | active: 50.1 µM |  |
| CCOC(=O)CC1Sc2ccccc2NC1=O (configuration not stated) |  | inactive: -4.64% |
| COc1ccc(C=O)cc1CSc1ccccn1 |  | inactive: 14% |
| O=C(CSc1ncccn1)NC(=O)Nc1ccc2c(c1)OCCO2 |  | inactive: -15.6% |
| C#CCOCCOCCOCCNc1nc(N2CCN(C(=O)CCCCCCCCCCNC(=O)[C@H](CCCCN)n3cc(C[C@@H](C)CC)nn3)CC2)nc(N2CCN(C(=O)CCCCCCCCCCNC(=O)[C@@H]([C@H](C)O)n3cc(C)nn3)CC2)n1 | active: 50.1 µM |  |
| O=C(NCC(c1ccco1)N1CCN(c2ccccc2)CC1)OCc1ccccc1 (configuration not stated) | inconclusive: 44.7 µM [inhibitor, partial curve] |  |
| Oc1ccc2ccccc2c1C=Nc1ccc(N2CCOCC2)cc1 | active: 39.8 µM |  |
| CCOc1ccc(OCC)c(NC(=O)C2CCCN(C(=O)c3ccc(Cl)cc3)C2)c1 (configuration not stated) | inconclusive: 89.1 µM [inhibitor, single point] |  |
| COc1cc(/C=N/NC(=O)[C@H](Cc2c[nH]c3ccccc23)NC(=O)OCC(C)C)cc([N+](=O)[O-])c1O | active: 39.8 µM |  |
| COC(=O)c1c(C(=O)OC)c(-c2ccc(C)cc2)n2c1CCC2 | inconclusive: 39.8 µM [inhibitor, full curve, poor fit] |  |
| Cc1cc(SCC#N)nc2ccccc12 |  | inactive: 6.31% |
| Cc1ccc(NC(=S)Nc2cc(C(=O)O)ccc2N2CC3CC(C2)c2cccc(=O)n2C3)cc1C (configuration not stated) |  | inactive: -18.8% |
| CN(C(=S)NC(=O)c1ccc(Cl)cc1)C1CCCCC1 | active: 44.7 µM |  |
| CN(C)c1ccc(/C=N\NC(=O)c2cccc3cc[nH]c23)cc1 | inconclusive: 39.8 µM [inhibitor, partial curve] |  |
| O=C(COC(=O)c1ccc(O)cc1O)Nc1ccc2ccccc2c1 |  | inactive: 8.17% |
| COc1ccc(C(=O)CN2CCN(S(=O)(=O)c3ccc(C(C)C)cc3)CC2)cc1 |  | inactive: -17.9% |

| SMILES | Potency | activity change, negative = inhibition |
| --- | --- | --- |
| COc1ccccc1C(=O)Nc1ccc(S(=O)(=O)N2CCCC2)cc1 | inconclusive: 89.1 µM [inhibitor, single point] |  |
| Cc1cccc(Cn2c(=O)n(-c3ccc(CC(=O)NCc4ccco4)cc3)c(=O)c3sccc32)c1 |  | inactive: 62.2% |
| O=C(COc1ncnc2sccc12)N1CCN(C(=O)c2ccco2)CC1 | inconclusive: 50.1 µM [inhibitor, partial curve] |  |
| COc1ccc(C(=O)/C=C/c2ccccc2)c(O)c1 | active: 44.7 µM |  |
| O=C(COc1ccccc1)Nc1ccc2c(c1)Cc1cc(NC(=O)COc3ccccc3)ccc1-2 |  | inactive: 13.6% |
| CC(=O)c1ccc(NC(=O)CCS(=O)(=O)c2ccc3c(c2)n(C)c(=O)c(=O)n3C)cc1 | active: 79.4 µM |  |
| O=S(=O)(/N=C(\c1ccccc1)N1CCOCC1)c1cccs1 |  | inactive: 7.31% |
| CCCC(c1nnnn1C(C)(C)C)N1CCN(C(=O)c2ccco2)CC1 (configuration not stated) | inconclusive: 79.4 µM [inhibitor, single point] |  |
| C#CCOCCOCCOCCNc1nc(N2CCN(C(=O)[C@H]([C@@H](C)O)n3cc(CCCCN)nn3)CC2)nc(N2CCN(C(=O)[C@H]([C@@H](C)CC)n3cc(CCCCN)nn3)CC2)n1 |  | inactive: -31.1% |
| O=C(Nc1ccccc1N1CCCC1)c1ccc(Br)o1 | inconclusive: 39.8 µM [inhibitor, partial curve] |  |
| Cn1c2ccccc2c2c(C(=O)N3CCN(c4ccccc4)CC3)cn(C3CCCC3)c(=O)c21 | inconclusive: 79.4 µM [inhibitor, single point] |  |
| COc1ccccc1CNCC(=O)Nc1ccc(N2CCOCC2)cc1 | active: 50.1 µM |  |
| O=C(Cn1cc(C(=O)C(F)(F)F)c2ccccc21)NCc1ccco1 | inconclusive: 28.2 µM [inhibitor, partial curve, poor fit] |  |
| COc1ccc(NC(=O)CN2C(=O)CC(c3ccco3)Sc3ccccc32)cc1OC (configuration not stated) | inconclusive: 50.1 µM [inhibitor, partial curve] |  |
| COC(=O)c1cccc(NC(=O)CSc2nnc(C3CC3)n2C)c1 |  | inactive: 0.748% |
| O=C(O)c1ccc(CNCc2cccc(Cl)c2Cl)cc1 | inconclusive: 100 µM [inhibitor, single point] |  |
| CN(C)S(=O)(=O)c1ccc(C(=O)NCC(c2cccs2)N2CCOCC2)cc1 (configuration not stated) | inconclusive: 0.631 µM [inhibitor, full curve, poor fit] |  |
| COc1ccccc1C(NC(C)=O)c1cc(Cl)c2cccnc2c1O (configuration not stated) |  | inactive: -12.9% |
| CCOC(=O)c1cc(-c2ccc(/C=C3/C(=O)N(c4ccc(C(=O)O)cc4)N=C3C)o2)ccc1Cl | active: 17.8 µM |  |
| CC(C)(C)c1cc(N2CCOCC2)n2ncc(-c3ccccc3)c2n1 | inconclusive: 89.1 µM [inhibitor, single point] |  |
| O=C(CN(Cc1ccco1)C(=O)c1ccccc1)Nc1ccc(Cl)c(Cl)c1 | inconclusive: 89.1 µM [inhibitor, single point] |  |
| CN1CCN(C(=O)c2ccc(Cl)c(S(=O)(=O)N3CCCCC3)c2)CC1 |  | inactive: -1.04% |
| COc1ccc(OC)c(N/C=C2/CCCCC2=O)c1 | inconclusive: 89.1 µM [inhibitor, single point] |  |
| CCSc1nnc(NC(=O)CN2C(=O)C3CC=CCC3C2=O)s1 (configuration not stated) | inconclusive: 63.1 µM [inhibitor, partial curve, poor fit] |  |

| SMILES | Potency | activity change, negative = inhibition |
| --- | --- | --- |
| COc1cccc(Nc2ncnc3onc(-c4ccccc4OC)c23)c1 |  | inactive: 4.72% |
| O=C(CCc1nc2ccccc2c(=O)[nH]1)OCC(=O)N1CCN(S(=O)(=O)c2ccccc2)CC1 | inconclusive: 89.1 µM [inhibitor, single point] |  |
| CC(=O)N1c2ccccc2C(=O)C1N1CCN(c2cc(Cl)ccc2C)CC1 (configuration not stated) | inconclusive: 22.4 µM [inhibitor, full curve] |  |
| COc1ccc(-c2cc(C(F)(F)F)n3nc(C(=O)Nc4sc5c(c4C#N)CCC(C)C5)cc3n2)cc1OC (configuration not stated) |  | inactive: 2.68% |
| CC(=O)NS(=O)(=O)c1ccc(NC(=O)c2ccc(NC(=O)c3cccs3)cc2)cc1 | inconclusive: 89.1 µM [inhibitor, single point] |  |
| Nc1ccc(C(=O)OCc2csc(-c3ccccc3)n2)cc1[N+](=O)[O-] | inconclusive: 89.1 µM [inhibitor, single point] |  |
| CCOC(=O)c1c(NC(=S)Nc2ccccc2)sc2c1CCN(CCc1ccccc1)C2 | inconclusive: 39.8 µM [inhibitor, partial curve] |  |
| O=C(/C=C/c1cccs1)c1ccc(Br)cc1 |  | inactive: -29.7% |
| O=[N+]([O-])c1cc([N+](=O)[O-])c(Oc2cc(Cl)cc(Cl)c2)cc1NN1CCCCC1 | inconclusive: 3.98 µM [inhibitor, full curve, poor fit] |  |
| O=C(/C=C/c1ccc(-c2ccccc2[N+](=O)[O-])o1)c1ccc(Br)cc1 | active: 28.2 µM |  |
| CCOC(=O)c1c(C)[nH]c(N=Nc2ccc(C)cc2C)c1C | active: 14.1 µM |  |
| COc1cc2c(C(=O)N3CCN(c4ccccc4)CC3)c(C)oc2cc1Br | inconclusive: 35.5 µM [inhibitor, partial curve] |  |
| COC(=O)c1nnn(-c2nonc2N)c1CSc1ccc(Cl)cc1 |  | inactive: -27.8% |
| COc1nccnc1NS(=O)(=O)c1ccc(NC(=S)NC(=O)c2ccccc2F)cc1 | inconclusive: 79.4 µM [inhibitor, single point] |  |
| COc1ccc(C(=O)N/N=C/c2ccc(OC)c(CN3CCc4cc(OC)c(OC)cc4C3C)c2)cc1 (configuration not stated) |  | inactive: -17.8% |
| CN(C(=O)COC(=O)c1ccc(Cl)c(N)c1)c1ccccc1 |  | inactive: -20.1% |
| COc1ccc(C(=O)N/C(=C\c2cn(S(=O)(=O)N(C)C)c3ccccc23)C(=O)NCCCn2ccnc2)cc1 | active: 31.6 µM |  |
| CN(C)c1ccc(N=C/C=C2/N(C)c3ccccc3C2(C)C)cc1 | active: 20 µM |  |
| COC(=O)c1cc(C(=O)N(Cc2ccccc2)c2ccccn2)cc([N+](=O)[O-])c1 | inconclusive: 89.1 µM [inhibitor, single point] |  |
| Cc1nn(C)c(C)c1C1Nc2ccccc2C(=O)N1O (configuration not stated) |  | inactive: -19.1% |
| CC(C)Oc1ccc(OCCNC2CCCC2)cc1 | inconclusive: 89.1 µM [inhibitor, single point] |  |
| COc1cccc(NS(=O)(=O)c2cc3c(cc2C)N(C)CCO3)c1 | inconclusive: 79.4 µM [inhibitor, single point] |  |
| CCOc1ccc(C2C(C(=O)c3cccs3)=C(O)C(=O)N2Cc2cccnc2)cc1OC (configuration not stated) | inconclusive: 89.1 µM [inhibitor, single point] |  |
| CC1Cc2cc(-c3csc(N)n3)ccc2O1 (configuration not stated) | inconclusive: 89.1 µM [inhibitor, single point] |  |
